# Data as given in PubChem BioAssay AID1508642 (National Center for Advancing Translational Sciences (NCATS), 2021).
# Hit rate of the full screen: of about 43,000 compounds, about 200 (0.47%) were called active. Not shown: some 12% with an inconclusive outcome. Calls come from the whole dose curve; as a rule, active = well fitted cell-killing curve with a large enough effect; inconclusive = small, poorly fitted or top-dose-only effect, or effect the other way; inactive = flat fitted curve, though single readings scatter. This is one part of the list.
# Test: Cell viability qHTS assay in S16 Pmp22-F2sN cells; note: nearly all actives have a fitted effect of over 65% in size
# Conditions: S16 Pmp22-F2sN Schwann cells viability, CellTiter-Glo, 24 h; series mostly up to 57.5 µM; activity change, negative = cytotoxicity: at the top concentration
# How it was run: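 S16 Pmp22-F2sN Schwann cells (500-1,000/well) in phenol-red-free DMEM with 10% FBS received 23 nL compound by pin tool for 24 h at 37 °C. Viability was then read as CellTiter-Glo luminescence after 15 min at room temperature.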
# % is set by controls: 0 for no effect and ±100 for the full control effect.
row,SMILES,"activity change, negative = cytotoxicity"
1,CCC(C(=O)NCCc1ccccc1)n1nc(C)c2sc3ccccc3c2c1=O (configuration not stated),inactive: -11.6%
2,COc1ccc(C2=C(C)C(N3CCC(C(=O)Nc4ccccc4F)CC3)=NS2(=O)=O)cc1,inactive: -9.66%
3,Cc1c(C)n(Cc2ccc(F)cc2)c2ccc(C(=O)N3CCN(c4ccc(F)cc4)CC3)cc12,inactive: -7.99%
4,Cc1cccc(CCNC(=O)C2CCC(CNS(=O)(=O)c3ccccc3)CC2)c1 (configuration not stated),inactive: -0.586%
5,CCCC(CCC)C(=O)Nc1cccc(-c2nc3cccnc3s2)c1C,inactive: -11.1%
6,COc1cccc(-c2nc(CS(=O)(=O)CC(=O)NCCc3ccc(OC)cc3OC)c(C)o2)c1,inactive: 2.97%
7,COCCCNC(=O)c1ccc(Cn2c(=O)c3ccccc3n(CC(=O)Nc3c(C)cccc3C)c2=O)cc1,inactive: 0.232%
8,CCOc1cc(C(=O)Nc2ccc3nc(Nc4cccc(Cl)c4)cc(C)c3c2)cc(OCC)c1OCC,inactive: 11.6%
9,Cc1nnc(SCc2cc(=O)n3cccc(C)c3n2)s1,inactive: -3.6%
10,Cc1nn2c(C)c(C(=O)N3CCN(c4ccccc4F)CC3)cnc2c1-c1ccc(F)cc1,inactive: -0.729%
11,O=C(Nc1ccc(F)c(Cl)c1)C1CCN(C(=O)c2ccc(F)cc2)CC1,inactive: -8.08%
12,N#Cc1ccccc1Cn1c(=O)n(CCCC(=O)NCc2ccccc2Cl)c(=O)c2ccccc21,inactive: 1%
13,COc1ccc(Cl)cc1NC(=O)CSC1=Nc2ccccc2C2=NC(CCC(=O)NCc3ccc(F)cc3)C(=O)N12 (configuration not stated),inactive: -22.8%
14,CCOc1ccc(N2CC(c3nc4ccccc4n3CCCOc3ccccc3OC)CC2=O)cc1 (configuration not stated),inactive: -11.1%
15,CCc1nnc(SCc2cccc(F)c2)c2cc3sc(C)cc3n12,inactive: -4.65%
16,CCS(=O)(=O)N1CC(=O)N(c2ccc(Cl)cc2C)C(C)(C(=O)NC2CCCCCC2)C1 (configuration not stated),inactive: -1.3%
17,COc1ccc(NC(=O)C2CCN(S(=O)(=O)c3ccc4[nH]c(=O)ccc4c3)CC2)cc1Cl,inactive: -0.0312%
18,COc1cc(OC)c(NC(=O)C(c2ccccc2)N2Cc3ccccc3C2=O)cc1Cl (configuration not stated),inactive: 2.83%
19,COc1ccc(N2CC(NC(=O)/C=C\c3ccc4c(c3)OCO4)CC2=O)cc1 (configuration not stated),inactive: 0.0133%
20,CCOC(=O)c1scc(-c2ccccc2)c1S(=O)(=O)Nc1ccc(N(C)C)cc1,inactive: -1.08%
21,CC(C)CN(CCCNC(=O)c1cc(-c2ccc(Br)s2)nc2ccccc12)CC(C)C,inactive: -13.3%
22,O=C(Nc1nonc1-c1ccc(Cl)cc1)c1ccccc1F,inactive: -5.9%
23,COc1ccc(CCNC(=O)C2(c3cccs3)CCOCC2)cc1,inactive: 3.43%
24,Cc1nc2ccccc2n1CCc1nc2c3ccccc3nc(SCC(=O)Nc3cccc(C(F)(F)F)c3)n2n1,inactive: -8.47%

row,SMILES,"activity change, negative = cytotoxicity"
1,O=C(CCC1N=C2c3ccccc3N=C(SCc3ccccc3Cl)N2C1=O)NCCc1ccccc1 (configuration not stated),inactive: 12.6%
2,Cn1c(=O)n(-c2ccc3c(c2)OCO3)c2nc(-c3ccc(Cl)cc3)nc(C(N)=O)c21,inactive: 22.6%
3,Cc1ccccc1NC(=O)CSc1nc(-c2ccc(F)cc2)nc2c1Cc1ccccc1O2,inactive: 7.09%
4,COc1ccc(Br)cc1Cn1nnc(C(=O)Nc2ccc(C)cc2C)c1N,inactive: -6.26%
5,Cc1cc(C)nc(NS(=O)(=O)c2ccc(NC(=O)c3ccccc3O)cc2)n1,inactive: -16.9%
6,COc1ccc2c(Sc3ccccc3)c(C(=O)NCC(C)c3ccccc3)[nH]c2c1 (configuration not stated),inactive: -8.13%
7,Cc1cc(C)cc(-n2c(SCC(=O)N3CCCC3)nc3c([nH]c4ccccc43)c2=O)c1,inactive: -2.9%
8,O=C(Cn1nc(-c2ccccc2)c2cnc3ccccc3c21)Nc1ccccc1,inactive: 14.2%
9,Cc1ccc(C)c(NC(=O)CN2C(=O)C3(SCC(=O)N3c3ccc(C)c(C)c3)c3ccccc32)c1 (configuration not stated),inactive: -8.91%
10,Cc1ccc(Cn2nnc3sc4c(c3c2=O)CCC(C)C4)cc1 (configuration not stated),inactive: -2.38%
11,CCC(=O)N1CCc2cc(CNS(=O)(=O)c3c(C)cc(C)cc3C)ccc21,inactive: -4.73%
12,CC1=C(C(=O)Nc2cccnc2)C(c2ccccc2)n2nc(SCc3ccccc3)nc2N1 (configuration not stated),inactive: 19.9%
13,COC(=O)c1ccccc1NC(=O)c1cc(-c2ccc(Cl)cc2)on1,inactive: 15.7%
14,CCCCOc1ccc(C(=O)Nc2ccc(S(=O)(=O)Nc3nc(C)cc(C)n3)cc2)cc1,inactive: -1.36%
15,CC1CCc2nc3ncn(Cc4ccc(Cl)cc4)c(=O)c3cc2C1 (configuration not stated),inactive: 1.11%
16,Cc1nnc(NCc2ccc(Cl)cc2)c2c1nnn2Cc1ccc(F)cc1,inactive: -0.503%
17,Cc1ccc2nc(-c3ccc(Cl)c(NC(=O)c4ccc5c(c4)OCCO5)c3)oc2c1,inactive: 3.38%
18,CCOc1ccccc1NC(=O)CSc1ccc2nnc(CCNS(=O)(=O)c3ccccc3)n2n1,inactive: -0.653%
19,Brc1ccc(-c2noc(-c3ccccc3)n2)o1,inactive: 3.36%
20,COCCNC(=O)CCCn1c(=O)[nH]c2ccsc2c1=O,inactive: 10.4%
21,Cc1ccc(Nc2ncnc3c2cnn3-c2ccc(C)cc2)cc1,inactive: 0.598%
22,CC(=O)Nc1ccc(NS(=O)(=O)c2cc(Br)cc3c2N(C(=O)C2CC2)CC3)cc1,inactive: 3.86%
23,COc1ccc(OCC(=O)N(Cc2cccc(OC)c2)C2CCS(=O)(=O)C2)cc1 (configuration not stated),inactive: 0.429%
